Binding signal (log2 normalized intensity) data for 93 sequences are collected here from paper PMC10726135.

Some of the results follow. At the low end of the ranking the order means little. The protein was read in a cell extract, so binding may be indirect.

The target of this assay is T1, HNF4alpha8 (COS-7 nuclear extract) (UniProt P41235-5).
T1 sequence: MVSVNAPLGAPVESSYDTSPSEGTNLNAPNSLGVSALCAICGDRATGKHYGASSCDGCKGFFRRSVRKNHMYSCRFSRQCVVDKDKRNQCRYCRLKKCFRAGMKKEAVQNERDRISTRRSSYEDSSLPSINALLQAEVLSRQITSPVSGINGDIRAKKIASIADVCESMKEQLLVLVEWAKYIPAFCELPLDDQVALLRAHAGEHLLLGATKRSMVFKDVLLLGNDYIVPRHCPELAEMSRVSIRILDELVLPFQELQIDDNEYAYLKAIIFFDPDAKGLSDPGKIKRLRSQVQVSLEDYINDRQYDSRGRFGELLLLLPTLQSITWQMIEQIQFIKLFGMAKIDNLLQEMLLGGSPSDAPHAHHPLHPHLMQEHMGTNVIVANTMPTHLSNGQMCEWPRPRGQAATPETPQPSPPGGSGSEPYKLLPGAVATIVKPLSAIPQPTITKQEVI
Nature of the assay: protein-binding microarray. As to conditions: COS-7 nuclear extract on double-stranded Agilent 4x180k PBM; binding buffer, salt, pH and temperature not given; high values mean tight binding; double strand, one strand shown; sequences stand for … in …GCCTAGGGAGATTAGAGTATCGGTCGA
Regarding TTTGAACTGGGTCTTAATAAGATAATAAGT, the binding signal (log2 normalized intensity) was 1.45.
The result for CCAGACAGAGAGGTCAGCAAATGTGGACAC reads 1.81; that for GGCACAGTAACCTGACCCCCAGTGGAATGT, 3.89.
The result for GGTAAGGGTGGGGGTGGGGAGGATAGCAGC reads -1.12; that for TGGTGGGGAATGCTAGGACTCATTCTCCCC, 0.175.
The result for CAAATAGCAGAAAATCCAGGTGCAGTGTGA reads 0.415.
With TGCCACATACCTTTAAACATTCTTCTCAGT, the binding signal (log2 normalized intensity) turned out to be 1.27.
Next, TTTGTGGGCCAAAAGCAGCCATTAAGAAGC: -1.3.
In the case of GAGGCACCCATCCCTTTGCAATAAAAGATT, the binding signal (log2 normalized intensity) was -0.0546.
The result for GCCCTTTGTATCTTTTAAGATACACTCTTT reads 2.69.
The result for GCTCCAGAGGAAGATATTATCTCTGTCTGT reads -0.105.
With GCAGTGACCAAGGGTCAGTTTGAAATTAGG, the binding signal (log2 normalized intensity) came to 3.09.
The result for AATGACCTTTGTCCAGCTGTGCCGAGCCTG reads 4.91.
Take AGGCCAATGAGGGAAGTTATTAACATCAAA: the binding signal (log2 normalized intensity) was -1.31.
As for CCAAAGTCTATGTGTGCTTTCTTCATTAAC, the binding signal (log2 normalized intensity) stood at 1.11.
Next, GGGAACCGGCAAGTCTGAAATCTACAGGAC: -1.27; CTGAGCAGGAATGTTTCCTCTCCCAGCCCC: 3.3; GACCTCCACTTTGGAGGGGGAATTTATTTT: -1.18.
Turning to GGGTTAAAAGCAAACCAAAAAGTTGGTTGG, the binding signal (log2 normalized intensity) was -1.08.
Next, GCTAGGTGGCGGGCTGGCTCAGGACAGGTG: -0.886; AGACAGCCACTGTTTGACGACTGTCTGCCA: -1.25.
The result for GTGTGTGTGTGTGTGTGGTGTGTGTGTGTG reads 3.45; that for CCTCAAAGAGCATGGCGCCAGGGAGTGATT, -0.795; that for ACCAGGGCTAGACCCGTCAGCCCTGGTCCA, -1.1.
For the sequence CTTCGATCACCTCAAGAAAGAGGTGGTTCT, the binding signal (log2 normalized intensity) is -1.22.
The result for TAAGATCCAAAGGAGTGGTCCTGCTCAAAG reads -1.26; that for TTGTATAGCATGAACTACACAGATTCTGCA, -1.27.
Next, GTGGTGTAGAGGCCCTGCAGGGCCCCACAT: -1.12.
Next, CATGATTGTGGAGGATGGGAAGTCCAAAGT: 3.91; ACATTTCCTTTTTGGCCAGCCCCGGGAATT: 1.53.
On to TTACACCTGTGTGTACTGGGCAGATAACAG, for which the binding signal (log2 normalized intensity) is -0.168.
Next, ACTGAAAGAACACAGCGCAGCACACTGCAG: -1.26; AACTGACCTTGCAGGCCAGGGAGTGCAGCT: -1.09; GATGGGTCCACACAGCTGAATCCAAAGGTC: 6.95.
On to CTCATAAGAGACTTTGCCCTTTTTTTCTCT, for which the binding signal (log2 normalized intensity) turned out to be 4.7.
Next, AAATAGAGCAGCCTGGGGTAAAACCAAACT: -1.32; AGAGAGACCGTCCCTGGGTACAACTTTATC: 1.35; CAGGGAGTGCCCTTCCACTTAGGCTTGCAA: -1.12.
The result for CAAAGTGCATTGGAGGCCAGATGCCAACTG reads -1.17.
For the sequence AATCAACTGCCCTCTGCCTTTCAGGCAGGA, the binding signal (log2 normalized intensity) is -1.36.
Next, GCAATCTTCCAGTCCACAGTCCAGTGACTA: 0.759.
Consider AATGGTCATTCTCTGTTGCATGGTTGACAT, for which the binding signal (log2 normalized intensity) turned out to be 1.61.
The result for AGGAGCCTCCAATCAGGACAGACTGGTTGA reads -0.921; that for GCAAGGATCAGCCCCACACTCCTGGGCTGT, -1.46; that for CAAGGGGAATGTGGATGCTGGAATGAGGGA, -1.45.
Next, CAGAAACAAAGGGGGAGGGAGATAGAGAAA: -1.32; CCAGTGACTATCTGCTACTTAAGATAGAGG: 0.373; TTTAGGAAGAGATCAAAGTTCTGTTTGTAT: 3.39.
The result for ATCTGGTGGTGGTTCTTGTTTCATTGCACA reads 1.7.
As to CAGCTGGTCACACTGCACCTGCCTGAACAA, the binding signal (log2 normalized intensity) was -1.46.
Next, GGAAGATAAGCTATTATTTACATTGTTGGG: 0.903.
The result for CGGTCCTCGCTCGCCCGAGCGCTGCTTCTC reads -1.56.
The result for TGAGACTCAAGGCAAGTTGCTTCCACCTAT reads -1.4.
In the case of CTTGGCCTGCATAGCACTTTCATAACTTCT, the binding signal (log2 normalized intensity) was -1.23.
The result for AGGTCAGAGTTGAACCCTTGGGGCTTTTGC reads 2.84; that for ATACAGATTTCATCTAAGGACAAACTTTGT, 1.87.
For the sequence AGATACAGTTTGAAAAACACTGGATAAAGT, the binding signal (log2 normalized intensity) was -1.27.
Next, AAAAAGACGCGGTCTCAGTTAACGGGGACG: -1.34; GCTTGAGCGAGACAGCGGGTGTTTCTGGGA: 0.72.
Next, TTCCCCAGCGACTGAGCTGAGGTTAGAATC: -0.214.
The result for CTGTTTTACTGGGGCCCATTGTATGAGGGT reads 1.38; that for CAGAGAGATACTGAACCTTGCACTATTGAC, 3.97.
Take CTGCAGTCAGGGGTTAGGCCTGGAACCTGT: the binding signal (log2 normalized intensity) was determined as 1.32.
The result for GATCCAAAAGACCCAGGTGTGTTGCAACTT reads 1.36.
The result for ATCAAAGGTCAAAATATCTGATCGATATCC reads 3.58; that for GGCATATCTCTGTCCCTGATACCATTATCT, 0.708.
Next, TGGGGGAGGTAGGTAAGGACCAGATCATTC: -1.29.
As for ACAGTAGACTTTTTTTTTCTTAATTGCCCT, the binding signal (log2 normalized intensity) was 3.18.
The result for CTCTCAAAAATCTCACTCACCCTAAGCCCT reads 2.65; that for CCCACCCCCACGCCCCCCAGCGGAAGTCCA, 6.82.
The result for TAATGTGCCCAAAAGGACACAGGGTCTGTT reads -0.265; that for GTGGAAGGATCACCTGAGTCCAGAGGTCAA, 5.66.
Next, TTCCTGTCACAAGAGATAAAGCTCTTTGTC: -0.389; AGTCAGTTGCATGCAACCTTTGTCCTCATT: 6.53.
Turning to GGGATCCAGGTGCAAAGTACTTCCGATCTC, the binding signal (log2 normalized intensity) was 1.3.
Next, AATTCATCTCTAAGCTACTGAAAATGACCT: 3.88; TAAGATAAGGAGGTAGAGTCTAAGGCTAAA: -1.2; GCCTTGGGCAAGTTACTTAAGCCATCTGCT: -1.39.
Turning to TCTCCTGCATTCCTGTCCACCCTGAAAGAG, the binding signal (log2 normalized intensity) was 0.378.
The result for AGCCAACCAGAGGCTGAAGTGAAGTTACAA reads -1.25.
Next, TCTCCAGGGTCCTTGCCTTAAGAGCAGTCT: -0.906; AGCCCAAGGCAAAGCAGATGTGCTAACACT: -1.28; CAGACACACAATATTATGTTTTGTTATCTG: 1.2.
The result for GGTTGCCCTAGTGACTCTAGGAACCTTTCT reads 0.299; that for TGGTCAATATCCACACAAACCCAGTTTGCA, -1.31.
As to GGATACCTAAGCCCCATGCTGATAAGGGCC, the binding signal (log2 normalized intensity) was -1.29.
Next, TGGCATTTGAGACTAGCCACAATAGGCCCT: -1.18; AGAGAAAAATCTTCAAACAACCCTTCGCTA: -1.38.
The result for CCAATTCACAGAACTCCCTAAGTGGCCTCA reads 0.0537; that for TCTTGGAAACATTTTACTCACCCCTTGCTG, 1.62.
GAGGGTTCTCACTCCTCTATCAGTACAAAT: the binding signal (log2 normalized intensity) worked out at 0.933.
The result for CCCCTCGGCCGCTCCCTCCCCTCCTCCCTT reads 5.12; that for CATTGCTGACCTTGCCTCTGTGCTCCCAGT, 1.04.
